# This is one part of the list. Viral Rep nickase domains cut single-stranded DNA in vitro (1 h at 37 °C, 3 µM enzyme); the outer parts of the 90-letter strands are left off. Numbers give uncut DNA relative to the enzyme-free pool, as log2; strong cutting gives strongly negative numbers. There is no active / inactive call. Reads are scaled to the total; values above 0 arise when much of the pool is cut.
# Columns and labels:
# Experiment in all cases: uncleaved DNA left, log2 of reads against the no-enzyme library (log2 ratio); higher = less cleavage (more negative = more Rep cleavage of the k-mer); sequences stand for … in CTCGTCCG…ACCGGAGA
# [1] = tested on: T1, Rep nickase domain of Muscovy duck circovirus
# T1 sequence (residues 1-111 of Rep, tag left off): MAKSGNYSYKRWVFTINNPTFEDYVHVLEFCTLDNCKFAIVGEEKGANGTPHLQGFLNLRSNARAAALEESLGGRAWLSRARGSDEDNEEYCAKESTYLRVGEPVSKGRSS
# Description: (§1)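 A pool of 90-nt single-stranded DNAs with seven random bases just before the constant AC of the nick site (name = the seven bases) was cut by 3 µM recombinant His6-SUMO-tagged Rep nickase domain (300 nM DNA, 50 mM HEPES pH 8.0, 50 mM NaCl, 1 mM MnCl2, 1 h, 37 °C, three replicates). Uncut DNA was amplified and sequenced.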
# [2] = tested on: T2, Rep nickase domain of banana bunchy top virus
# T2 sequence (residues 1-94 of Rep, tag left off): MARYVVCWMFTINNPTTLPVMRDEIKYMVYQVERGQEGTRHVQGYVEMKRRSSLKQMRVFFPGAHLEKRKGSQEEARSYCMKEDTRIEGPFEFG
# Description: as §1
# [3] = tested on: T3, Rep nickase domain of cabbage leaf curl virus
# T3 sequence (residues 1-116 of Rep, tag left off): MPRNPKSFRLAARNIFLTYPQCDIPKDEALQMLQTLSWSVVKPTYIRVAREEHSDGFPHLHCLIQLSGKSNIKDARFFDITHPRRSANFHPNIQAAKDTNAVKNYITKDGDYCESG
# Description: as §1
# [4] = tested on: T4, Rep nickase domain of chickpea chlorotic dwarf virus
# T4 sequence (residues 1-124 of Rep, tag left off): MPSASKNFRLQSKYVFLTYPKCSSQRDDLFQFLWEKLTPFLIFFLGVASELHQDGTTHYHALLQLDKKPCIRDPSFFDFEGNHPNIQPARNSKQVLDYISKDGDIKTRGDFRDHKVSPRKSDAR
# Description: as §1
# [5] = tested on: T5, Rep nickase domain of faba bean necrotic yellows virus
# T5 sequence (residues 1-98 of Rep, tag left off): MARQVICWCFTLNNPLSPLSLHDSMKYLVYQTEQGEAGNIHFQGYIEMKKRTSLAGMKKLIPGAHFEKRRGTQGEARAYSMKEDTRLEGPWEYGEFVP
# Description: as §1
# [6] = tested on: T6, Rep nickase domain of maize striate mosaic virus
# T6 sequence (residues 1-117 of Rep, tag left off): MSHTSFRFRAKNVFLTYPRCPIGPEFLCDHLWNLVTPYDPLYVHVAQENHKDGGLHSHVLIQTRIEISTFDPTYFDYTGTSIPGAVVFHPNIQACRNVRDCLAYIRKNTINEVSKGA
# Description: as §1
# [7] = tested on: T7, Rep nickase domain of porcine circovirus 2
# T7 sequence (residues 2-116 of Rep, tag left off): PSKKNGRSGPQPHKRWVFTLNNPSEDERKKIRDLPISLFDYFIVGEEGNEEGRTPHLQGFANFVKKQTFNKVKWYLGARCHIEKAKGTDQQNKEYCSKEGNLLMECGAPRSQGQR
# Description: as §1
# [8] = tested on: T8, Rep nickase domain of tomato golden mosaic virus
# T8 sequence (residues 1-124 of Rep, tag left off): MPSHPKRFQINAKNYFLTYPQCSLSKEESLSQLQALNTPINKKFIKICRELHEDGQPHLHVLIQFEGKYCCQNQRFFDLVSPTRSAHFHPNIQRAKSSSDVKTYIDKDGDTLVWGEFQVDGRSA
# Description: as §1
# [9] = tested on: T9, Rep nickase domain of tomato yellow leaf curl virus
# T9 sequence (residues 1-136 of Rep, tag left off): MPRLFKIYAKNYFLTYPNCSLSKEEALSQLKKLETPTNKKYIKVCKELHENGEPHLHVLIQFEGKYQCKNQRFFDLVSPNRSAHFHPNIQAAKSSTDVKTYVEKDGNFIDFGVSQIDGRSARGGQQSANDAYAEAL
# Description: as §1
# [10] = tested on: T10, Rep nickase domain of wheat dwarf virus
# T10 sequence (residues 1-137 of Rep, tag left off): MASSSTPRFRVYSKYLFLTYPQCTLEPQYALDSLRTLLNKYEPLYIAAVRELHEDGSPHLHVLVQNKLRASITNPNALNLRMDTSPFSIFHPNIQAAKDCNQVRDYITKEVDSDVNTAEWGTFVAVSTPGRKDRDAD
# Description: as §1
Sequence,uncleaved DNA left (log2) [1],uncleaved DNA left (log2) [2],uncleaved DNA left (log2) [3],uncleaved DNA left (log2) [4],uncleaved DNA left (log2) [5],uncleaved DNA left (log2) [6],uncleaved DNA left (log2) [7],uncleaved DNA left (log2) [8],uncleaved DNA left (log2) [9],uncleaved DNA left (log2) [10]
GGATTAA,0.108,0.142,0.629,1.21,0.0689,1.9,0.198,0.202,0.184,0.262
CTGATAT,0.0108,-0.0283,0.119,-0.223,-0.0125,-0.205,0.0361,0.0152,-0.0195,0.0934
AGAGTAC,0.164,0.0678,0.213,-0.129,0.0578,0.0979,0.0673,0.0701,0.0572,0.164
TAAGAAA,0.0748,0.0611,-0.237,-1.85,-0.0177,-0.306,-0.0678,0.00513,-0.00131,-0.0552
TCCGGGG,-0.0117,-0.0353,0.696,1.13,-0.187,1.71,0.236,0.0446,-0.174,-0.114
GGCATCA,0.0504,0.0675,0.57,1.39,0.0665,1.9,0.179,-0.0593,0.129,0.189
AAGGTCA,0.0246,0.0636,0.107,-0.0344,-0.111,0.54,-0.036,0.0111,0.0143,0.0535
TTCGCAG,-0.0741,-0.0309,-0.768,-0.792,-0.0847,-1.1,0.0944,-0.0625,-0.108,-0.0791
TAGACTG,-0.119,-0.0305,-0.0749,0.569,-0.111,1.62,-0.0538,-0.00424,-0.166,-0.0272
ACTTGTC,0.00833,-0.0275,-0.595,-0.622,-0.119,-1.03,0.0212,-0.137,0.0398,-0.0862
AGTGATA,0.151,0.159,0.171,0.582,0.144,1.38,-0.112,0.171,0.0886,0.147
CCAAGTA,0.00337,0.000659,-0.125,-0.532,0.0925,-0.179,0.0659,0.00875,-0.0604,-0.0268
GGACGTG,-0.0337,-0.0167,0.656,1.41,0.038,1.87,0.112,-0.0688,-0.0192,0.0369
TAAGCTT,-0.134,-0.149,-3.45,-2.38,0.0243,-0.121,-0.654,-1.76,-0.18,-2.32
TATTCCC,-2.97,-0.912,0.0555,-0.677,-0.0403,-0.426,-2.16,-0.0229,-0.027,-0.0838
